Data reported in article PMC12040169 (PLOS Biology, 2025).
The other results are listed elsewhere or left out.

system: T1, C. trachomatis L2/434/Bu expressing GFP (CTL2-GFP); set-up: species or system HeLa; C. trachomatis total inclusion area by high-content imaging, normalised to DMSO; details: total inclusion area; 28.5 h, 10 µM; inhibitor
T1 construct: L2/434/Bu GFP intracellular growth in HeLa cells
In short: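 After bulk GFP and resorufin fluorescence reads, cells were fixed, stained with Hoechst and imaged by high-content microscopy. Inclusion area and number (GFP) stood in for chlamydial growth, nuclei count (Hoechst) for host cell viability. MICs were derived as for the bulk readout.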

| Structure (SMILES) | % of control remaining |
| --- | --- |
| CCn1c2ccccc2n2c(SCC(=O)O)nnc12 [CBK266869] | 94.6712 |
| CN1CCN(C(C(=O)O)c2cn(CCC(=O)O)c3ccc(Br)cc23)CC1 (stereo not shown) [CBK286698] | 64.7227 |
| CSc1ccc(CNC(=O)c2ccc(Cl)cc2)s1 [CBK057705] | 94.2452 |
| O=C(c1nccs1)C1CCN(C(=O)Cc2ccsc2)CC1 [CBK284176] | 83.3791 |
| Cc1nn(C)c(Cl)c1S(=O)(=O)N1CCN(C)CC1 [CBK062426] | 112.868 |
| COc1ccc(NC(=O)N2CC[C@H]3CC(=O)N(CCN4CCNC4=O)CC[C@H]3C2)cc1 [CBK288797] | 113.603 |
| COc1ccc(C(=O)Nc2ccc(S(=O)(=O)N3CCN(C)CC3)cc2)cc1[N+](=O)[O-] [CBK268140] | 101.428 |
| CCOC(=O)c1cc2cc(NC(=O)N(CCO)C3CC3)ccc2s1 [CBK306007] | 97.4725 |
| CN(C)CCSc1cncc(N2CCCC2)n1 [CBK105294] | 101.986 |
| NC(=O)COc1ccc(C2CC(=O)Nc3c(-c4cccc(F)c4)csc32)cc1 (stereo not shown) [CBK294441] | 93.0413 |
| COCc1ccc(CN2CCC3(CCc4ccccc4C(=O)N3)C2)o1 (stereo not shown) [CBK284651] | 81.2383 |
| Cc1cc(CNC(=O)N2CCN(CCc3ccccc3)CC2)no1 [CBK158898] | 101.9 |
| CN(C)c1ccccc1C1(O)CN2CCC1CC2 (stereo not shown) [CBK022620] | 91.7435 |
| COc1ccc(C2CCN(Cc3cccnc3)CC2)cc1 [CBK283564] | 96.8469 |
| CCCCOc1ccc(C(N)CC(=O)O)cc1 (stereo not shown) [CBK262915] | 107.746 |
| O=C(O)CC/C(=N\Nc1ccc([N+](=O)[O-])cc1)c1ccc(F)cc1 [CBK017075] | 104.373 |
| CN1CCN(CCCNC(=O)N(C)C2CCN(C)C2)CC1 (stereo not shown) [CBK155993] | 93.9401 |
| Cc1ccc(-c2cc(-c3ccccc3O)nc(N/N=C/c3cccnc3)n2)cc1 [CBK262308] | 96.8351 |
| Fc1ccc(CN2CCC(n3cnc4cccnc43)CC2)cc1 [CBK283580] | 77.3442 |
| Nn1c(S)nnc1Cn1nnc2ccccc21 [CBK268233] | 93.6898 |

| Structure (SMILES) | % of control remaining |
| --- | --- |
| O=C(c1ccc(F)cc1)N1C[C@@H]2C[C@H](C1)c1ccc(-c3cncnc3)c(=O)n1C2 [CBK289185] | 92.1562 |
| O=C(CN1CCOCC1)N1CCN(C(=O)c2ccc(C(F)(F)F)cc2)C1 [CBK051555C] | 66.6391 |
| O=C(Nc1ccccc1)N1Cc2nc[nH]c2C[C@H]1c1nc(-c2ccccc2)no1 [CBK288997] | 79.1114 |
| CN1C(=S)SC(C)(N(O)C(=O)NC2CCCCC2)C1(C)C (stereo not shown) [CBK008916] | 12.7002 |
| Cc1cc(N2CCN(C(=O)CCc3ccsc3)CC2)nc(C(C)C)n1 [CBK305710] | 87.5781 |
| CNC(=O)Cn1nc(C)c2cnn(-c3ccccc3)c2c1=O [CBK287669] | 120.664 |
| CCN(CC)C(=O)c1sc2ncccc2c1NS(=O)(=O)Cc1ccccc1[N+](=O)[O-] [CBK050022] | 104.132 |
| CC1CCCN(CC(C)(C)NC(=O)c2cc(C(F)(F)F)nn2C)C1 (stereo not shown) [CBK281598] | 128.08 |
| COc1ccccc1-c1nccnc1NCc1ccc(C(F)(F)F)cc1 [CBK036788] | 115.586 |
| CCC(C(=O)Nc1sc2c(c1C(N)=O)CCCCCC2)c1ccccc1 (stereo not shown) [CBK265383] | 91.7292 |
| CC(=O)Nc1ccc(-c2ccc(COC3CCN(C(=O)Cc4ccc(Cl)cc4)CC3)cc2)cc1 [CBK149218] | 93.2968 |
| Cc1cc(C(=O)CSc2nnc(-c3ccccc3F)n2CC(C)C)c(C)[nH]1 [CBK297877] | 135.775 |
| O=C(CN1CCCC1=O)N1CCN(C(=O)c2ccc(Br)o2)CC1 [CBK034530] | 32.6368 |
| N#Cc1c(-c2ccccc2)noc1C/C=N/O [CBK007357] | 82.1327 |
| Cc1cc(C)nc(Nc2n[nH]c(-c3ccc(NC(=O)Nc4ccccc4)cc3)n2)n1 [CBK267076] | 93.6855 |
| O=C(O)c1cc(NS(=O)(=O)c2ccc([N+](=O)[O-])cc2)ccc1O [CBK296077] | 51.7256 |
| CCN(CC)C(=O)C1CCCN(C(=O)Nc2ccc3[nH]ccc3c2)C1 (stereo not shown) [CBK156133] | 104.599 |
| CSCCN1CCN(c2nccnc2OCC2COc3ccccc3O2)CC1 (stereo not shown) [CBK082806T] | 84.0141 |
| Cn1cc(CN2CCCC(c3cccc(Cc4ccc(Cl)cc4)n3)C2)cn1 (stereo not shown) [CBK286242] | 60.8188 |
| C#CCNS(=O)(=O)c1cccc(C(=O)NC2CCOc3ccccc32)c1 (stereo not shown) [CBK305430] | 63.2429 |
